Source: patent US11420968B2 (priority 2018, dated 2022)
Read-outs that look alike come from different tables or passages of the source.

Legend:
Molt-4 cells = test: cells; settings: Homo sapiens, MOLT-4, read-out: Cellular activity (IC50, nM) Molt-4
RS4;11 cells = test: cells; settings: Homo sapiens
[1] = RS4-11, 48 h, read-out: Cellular activity (IC50, nM) RS4;11
[2] = RS4-11, 48 h, read-out: Cellular activity (IC50, nM) RS4, 11

Q: For `CN1CCN(c2ccccc2C2CCCN2c2ccc(-c3ccc(C(=O)NS(=O)(=O)c4ccc(NCC5CCOCC5)c([N+](=O)[O-])c4)c(Oc4cnc5[nH]ccc5c4)c3)cc2)CC1` (stereo not drawn) [Example A121, 3-((1H-pyrrolo[2,3-b]pyridin-5-yl)oxy)-4′-(2-(2-(4-methylpiperazin-1-yl)phenyl)pyrrolidin-1-yl)-N-((3-nitro-4-(((tetrahydro-2H-pyran-4-yl)methyl)amino)phenyl)sulfonyl)-[1,1′-biphenyl]-4-carboxamide], which IC50 (Molt-4 cells) is on record?
A: 1800 nM

Q: And the IC50 (RS4;11 cells; [1])?
A: 6.6 nM

Q: For `CN(C)CC(=O)N1CCOC(CNc2ccc(S(=O)(=O)NC(=O)c3ccc(C4=CCC(N5CCCC5c5ccccc5C5CC5)CC4)cc3Oc3cnc4[nH]ccc4c3)cc2[N+](=O)[O-])C1` (stereo not drawn) [Example G18, 3-((1H-pyrrolo[2,3-b]pyridin-5-yl)oxy)-4′-(2-(2-cyclopropylphenyl)pyrrolidin-1-yl)-N-((4-(((4-(dimethylglycyl)morpholin-2-yl)methyl)amino)-3-nitrophenyl)sulfonyl)-2′,3′,4′,5′-tetrahydro-[1,1′-biphenyl]-4-carboxamide], which IC50 (Molt-4 cells) is on record?
A: > 10000 nM

Q: What about the IC50 (RS4;11 cells; [2]) of the same molecule?
A: 39 nM

Q: Which results are given for `O=C(NS(=O)(=O)c1ccc(NCC2CNCCO2)c([N+](=O)[O-])c1)c1ccc(C2=CCC(N3CCCC3c3ccccc3C3CC3)CC2)cc1Oc1cnc2[nH]ccc2c1` (stereo not drawn) [Example G27, 3-((1H-pyrrolo[2,3-b]pyridin-5-yl)oxy)-4′-(2-(2-cyclopropylphenyl)pyrrolidin-1-yl)-N-((4-((morpholin-2-ylmethyl)amino)-3-nitrophenyl)sulfonyl)-2′,3′,4′,5′-tetrahydro-[1,1′-biphenyl]-4-carboxamide]?
A: IC50 (Molt-4 cells): > 10000 nM; IC50 (RS4;11 cells; [2]): 118 nM

Q: What does the source list for `O=C(NS(=O)(=O)c1ccc(NCC2CCOCC2)c([N+](=O)[O-])c1)c1ccc(N2CCC3(CC2)CC(N2C(c4ccccc4C4CC4)CC4CC42)C3)cc1Oc1cnc2[nH]ccc2c1` (stereo not drawn) [Example F87, 2-((1H-pyrrolo[2,3-b]pyridin-5-yl)oxy)-4-(2-(3-(2-cyclopropylphenyl)-2-azabicyclo[3.1.0]hexan-2-yl)-7-azaspiro[3.5]nonan-7-yl)-N-((3-nitro-4-(((tetrahydro-2H-pyran-4-yl)methyl)amino)phenyl)sulfonyl)benzamide]?
A: IC50 (Molt-4 cells): > 10000 nM; IC50 (RS4;11 cells; [1]): 36 nM

Q: Which IC50 (Molt-4 cells) does the source give for `C=C1CC(c2ccccc2C2CC2)N(C2CC=C(c3ccc(C(=O)NS(=O)(=O)c4ccc(NCC5CCOCC5)c([N+](=O)[O-])c4)c(Oc4cnc5[nH]ccc5c4)c3)CC2)C1` (stereo not drawn) [Example C180, 3-((1H-pyrrolo[2,3-b]pyridin-5-yl)oxy)-4′-(2-(2-cyclopropylphenyl)-4-methylenepyrrolidin-1-yl)-N-((3-nitro-4-(((tetrahydro-2H-pyran-4-yl)methyl)amino)phenyl)sulfonyl)-2′,3′,4′,5′-tetrahydro-[1,1′-biphenyl]-4-carboxamide] here?
A: 1990 nM

Q: What about the IC50 (RS4;11 cells; [2]) of the same molecule?
A: 118 nM

Q: `O=C(NS(=O)(=O)c1ccc(NCC2CCOCC2)c([N+](=O)[O-])c1)c1ccc(-c2cnn(C3CC(N4CCC[C@H]4c4ccccc4C4CC4)C3)c2)cc1Oc1cnc2[nH]ccc2c1` (stereo partly drawn) [Example B38, (S)-2-((1H-pyrrolo[2,3-b]pyridin-5-yl)oxy)-4-(1-(3-(2-(2-cyclopropylphenyl)pyrrolidin-1-yl)cyclobutyl)-1H-pyrazol-4-yl)-N-((3-nitro-4-(((tetrahydro-2H-pyran-4-yl)methyl)amino)phenyl)sulfonyl)benzamide] was tested. Which IC50 (Molt-4 cells) did it give?
A: > 10000 nM

Q: And the IC50 (RS4;11 cells; [1])?
A: 115 nM

Q: How did the IC50 (Molt-4 cells) turn out when `CC1(C)CCC(Cc2ccc(-c3ccc(C(=O)NS(=O)(=O)c4ccc(NCC5CCOCC5)c([N+](=O)[O-])c4)c(Oc4cnc5[nH]ccc5c4)c3)cc2)=C(c2ccc(Cl)cc2)C1` [Example B6, 3-((1H-pyrrolo[2,3-b]pyridin-5-yl)oxy)-4′-((4′-chloro-5,5-dimethyl-3,4,5,6-tetrahydro-[1,1′-biphenyl]-2-yl)methyl)-N-((3-nitro-4-(((tetrahydro-2H-pyran-4-yl)methyl)amino)phenyl)sulfonyl)-[1,1′-biphenyl]-4-carboxamide] was run?
A: 7260 nM

Q: And the IC50 (RS4;11 cells; [2])?
A: 91 nM

Q: And the IC50 (RS4;11 cells; RS4-11, read-out: Cellular activity (IC50, nM))?
A: 91 nM
